From PMC8875924 come the findings set out here.

No constants are given. Whether binding was seen depends on the method and setting. Binding seen in cells or lysates may run through a third protein. Some results given as binding are weak or reduced against the parent protein; the word gives no strength. Sequences can lack the tags named with a protein.

The assay addresses T1, EYFP-UPF1 (human) (UniProt Q92900).
T1 sequence: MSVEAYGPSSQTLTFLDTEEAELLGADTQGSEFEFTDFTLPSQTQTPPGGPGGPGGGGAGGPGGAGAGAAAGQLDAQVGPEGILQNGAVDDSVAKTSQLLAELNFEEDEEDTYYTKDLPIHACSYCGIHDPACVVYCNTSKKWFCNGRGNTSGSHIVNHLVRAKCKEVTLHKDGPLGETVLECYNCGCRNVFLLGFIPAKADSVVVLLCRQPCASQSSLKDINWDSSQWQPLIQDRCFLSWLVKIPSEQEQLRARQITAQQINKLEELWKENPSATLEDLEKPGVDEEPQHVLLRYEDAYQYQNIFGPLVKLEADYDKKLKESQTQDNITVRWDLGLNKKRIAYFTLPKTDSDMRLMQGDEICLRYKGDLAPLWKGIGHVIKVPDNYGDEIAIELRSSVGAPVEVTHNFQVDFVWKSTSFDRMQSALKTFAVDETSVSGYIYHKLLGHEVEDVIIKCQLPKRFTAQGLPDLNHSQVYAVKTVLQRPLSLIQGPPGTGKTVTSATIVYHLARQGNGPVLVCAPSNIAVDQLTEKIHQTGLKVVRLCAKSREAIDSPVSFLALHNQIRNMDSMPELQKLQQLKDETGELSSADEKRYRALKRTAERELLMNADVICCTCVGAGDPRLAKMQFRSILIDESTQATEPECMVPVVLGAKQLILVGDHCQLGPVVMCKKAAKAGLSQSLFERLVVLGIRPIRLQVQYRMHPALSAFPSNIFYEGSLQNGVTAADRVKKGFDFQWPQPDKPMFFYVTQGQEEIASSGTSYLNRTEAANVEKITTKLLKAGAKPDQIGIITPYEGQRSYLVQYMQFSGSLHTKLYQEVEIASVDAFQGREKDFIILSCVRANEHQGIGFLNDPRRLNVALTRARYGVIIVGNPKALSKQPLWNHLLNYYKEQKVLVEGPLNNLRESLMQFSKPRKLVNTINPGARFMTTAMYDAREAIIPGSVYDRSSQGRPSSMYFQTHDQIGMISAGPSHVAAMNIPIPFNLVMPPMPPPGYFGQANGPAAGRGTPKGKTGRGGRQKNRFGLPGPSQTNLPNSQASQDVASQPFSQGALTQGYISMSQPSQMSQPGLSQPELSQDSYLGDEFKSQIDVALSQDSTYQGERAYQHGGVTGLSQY
In words: FRET or BRET.

B1: ECFP-Rex (protein, UniProt P0C205 1-189)
chain: MPKTRRRPRRSQRKRPPTPWPTSQGLDRVFFSDTQSTCLETVYKATGAPSLGDYVRPAYIVTPYWPPVQSIRSPGTPSMDALSAQLYSSLSLDSPPSPPREPLRPSRSLPRQSLIQPPTFHPPSSRPCANTPPSEMDTWNPPLGSTSQPCLFQTPDSGPKTCTPSGEAPLSACTSTSFPPPSPGPSCPT
Consider B1, for which the binding entry is “binds”.
